Results reported in the supplement of paper PMC4967469.
pIC50: −log10 of the molar value. A lower IC50 marks a more sensitive line; where the fit passes the top or lowest dose, that dose stands as a limit. AUC is the area under the same curve over the 256-fold range up to the top dose, as a fraction; the more sensitive the line, the further below 1. For part of these data: Where the top dose is marked as inferred, it was calculated from the reported fits. For part of these data: An entry number marks a drug with two screens in the source, which often give different values.

How the values were obtained:
Assay in all cases: Viability of human cancer cell lines after 72 h of drug (GDSC screen)
LFM-A13 = compound: C/C(O)=C(\C#N)C(=O)Nc1cc(Br)ccc1Br [LFM-A13]; details: top dose 16 µM; top dose inferred
Method: (§1)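 Human cancer cell lines in 384-well plates, medium with 10% serum, drug for 72 h over a 256-fold dose range (nine 2-fold or five 4-fold steps up to the top dose). Adherent lines were fixed and stained with the nucleic acid dye Syto60, suspension lines read with resazurin; signal relative to control wells, capped at 0 and 100%. One two-parameter sigmoid per drug and line, fitted in a mixed model over all curves with the slope shared within a line.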

TW-37 = compound: CC(C)c1ccccc1Cc1cc(C(=O)Nc2ccc(S(=O)(=O)c3ccccc3C(C)(C)C)cc2)c(O)c(O)c1O [TW-37]; details: top dose 5 µM
Method: as §1

Bicalutamide = compound: CC(O)(CS(=O)(=O)c1ccc(F)cc1)C(=O)Nc1ccc(C#N)c(C(F)(F)F)c1 [Bicalutamide]; details: top dose inferred
Method: as §1

AUY922 = compound: CCNC(=O)c1noc(-c2cc(C(C)C)c(O)cc2O)c1-c1ccc(CN2CCOCC2)cc1 [AUY922]; details: top dose 0.256 µM; top dose inferred
Method: as §1

KIN001-270 = compound: Cc1ccc(Nc2cc(-c3cccc(N4C(=O)c5ccccc5C4=O)c3)ncn2)cc1NS(C)(=O)=O [KIN001-270]; details: top dose 20 µM; top dose inferred
Method: as §1

Nilotinib = compound: Cc1cn(-c2cc(NC(=O)c3ccc(C)c(Nc4nccc(-c5cccnc5)n4)c3)cc(C(F)(F)F)c2)cn1 [Nilotinib]; details: top dose 2 µM
Method: as §1

GNF-2 = compound: NC(=O)c1cccc(-c2cc(Nc3ccc(OC(F)(F)F)cc3)ncn2)c1 [GNF-2]; details: top dose 1.28 µM; top dose inferred
Method: as §1

Gemcitabine = compound: Nc1ccn([C@@H]2O[C@H](CO)[C@@H](O)C2(F)F)c(=O)n1 [Gemcitabine]; details: top dose 1.024 µM
Method: as §1

T0901317 = compound: O=S(=O)(c1ccccc1)N(CC(F)(F)F)c1ccc(C(O)(C(F)(F)F)C(F)(F)F)cc1 [T0901317]; details: top dose 10.24 µM; top dose inferred
Method: as §1

MP470 = compound: S=C(NCc1ccc2c(c1)OCO2)N1CCN(c2ncnc3c2oc2ccccc23)CC1 [MP470]; details: top dose 20 µM; top dose inferred
Method: as §1

[1] = top dose 1.024 µM, screen: GDSC drug entry 150
[2] = top dose 10 µM, screen: GDSC drug entry 1502

## ES4 (Ewing sarcoma, adherent)
LFM-A13
  AUC: 0.968
  pIC50: < 4.80
TW-37
  AUC: 0.466
  pIC50: 6.60
Bicalutamide; [1]
  AUC: 0.981
  pIC50: < 5.99
Bicalutamide; [2]
  AUC: 0.979
  pIC50: < 5.00
AUY922
  AUC: 0.368
  pIC50: 8.19
KIN001-270
  AUC: 0.98
  pIC50: < 4.70
Nilotinib
  AUC: 0.963
  pIC50: < 5.70
GNF-2
  AUC: 0.964
  pIC50: < 5.89
Gemcitabine
  AUC: 0.053
  pIC50: > 8.40
T0901317
  AUC: 0.98
  pIC50: < 4.99
MP470
  AUC: 0.934
  pIC50: < 4.70

## ES5 (Ewing sarcoma, adherent)
LFM-A13
  AUC: 0.954
  pIC50: < 4.80
TW-37
  AUC: 0.549
  pIC50: 6.36
Bicalutamide; [1]
  AUC: 0.983
  pIC50: < 5.99
Bicalutamide; [2]
  AUC: 0.97
  pIC50: < 5.00
AUY922
  AUC: 0.673
  pIC50: 7.28
KIN001-270
  AUC: 0.939
  pIC50: < 4.70
Nilotinib
  AUC: 0.939
  pIC50: < 5.70
GNF-2
  AUC: 0.982
  pIC50: < 5.89
Gemcitabine
  AUC: 0.551
  pIC50: 7.05
T0901317
  AUC: 0.967
  pIC50: < 4.99
MP470
  AUC: 0.907
  pIC50: < 4.70

## ES7 (Ewing sarcoma, adherent)
LFM-A13
  AUC: 0.91
  pIC50: < 4.80
TW-37
  AUC: 0.505
  pIC50: 6.49
Bicalutamide; [1]
  AUC: 0.975
  pIC50: < 5.99
Bicalutamide; [2]
  AUC: 0.971
  pIC50: < 5.00
AUY922
  AUC: 0.565
  pIC50: 7.61
KIN001-270
  AUC: 0.898
  pIC50: < 4.70
Nilotinib
  AUC: 0.947
  pIC50: < 5.70
GNF-2
  AUC: 0.944
  pIC50: < 5.89
Gemcitabine
  AUC: 0.27
  pIC50: 7.86
T0901317
  AUC: 0.959
  pIC50: < 4.99
MP470
  AUC: 0.822
  pIC50: 4.92

## ES8 (Ewing sarcoma, adherent)
LFM-A13
  AUC: 0.959
  pIC50: < 4.80
TW-37
  AUC: 0.378
  pIC50: 6.83
Bicalutamide; [1]
  AUC: 0.987
  pIC50: < 5.99
Bicalutamide; [2]
  AUC: 0.984
  pIC50: < 5.00
AUY922
  AUC: 0.615
  pIC50: 7.49
KIN001-270
  AUC: 0.925
  pIC50: < 4.70
Nilotinib
  AUC: 0.982
  pIC50: < 5.70
GNF-2
  AUC: 0.987
  pIC50: < 5.89
Gemcitabine
  AUC: 0.127
  pIC50: 8.32
T0901317
  AUC: 0.986
  pIC50: < 4.99
MP470
  AUC: 0.953
  pIC50: < 4.70

## ES-2 (ovary, adherent)
LFM-A13
  AUC: 0.986
  pIC50: < 4.80
TW-37
  AUC: 0.47
  pIC50: 6.58
Bicalutamide; [1]
  AUC: 0.987
  pIC50: < 5.99
Bicalutamide; [2]
  AUC: 0.99
  pIC50: < 5.00
AUY922
  AUC: 0.784
  pIC50: 7.02
KIN001-270
  AUC: 0.93
  pIC50: < 4.70
Nilotinib
  AUC: 0.99
  pIC50: < 5.70
GNF-2
  AUC: 0.991
  pIC50: < 5.89
Gemcitabine
  AUC: 0.525
  pIC50: 7.13
T0901317
  AUC: 0.977
  pIC50: < 4.99
MP470
  AUC: 0.814
  pIC50: 5.03

## ETK-1 (biliary tract, adherent)
LFM-A13
  AUC: 0.974
  pIC50: < 4.80
TW-37
  AUC: 0.649
  pIC50: 6.07
Bicalutamide; [1]
  AUC: 0.983
  pIC50: < 5.99
Bicalutamide; [2]
  AUC: 0.978
  pIC50: < 5.00
AUY922
  AUC: 0.6
  pIC50: 7.50
KIN001-270
  AUC: 0.963
  pIC50: < 4.70
Nilotinib
  AUC: 0.977
  pIC50: < 5.70
GNF-2
  AUC: 0.904
  pIC50: < 5.89
Gemcitabine
  AUC: 0.258
  pIC50: 7.93
T0901317
  AUC: 0.98
  pIC50: < 4.99
MP470
  AUC: 0.588
  pIC50: 5.65

## EVSA-T (breast, adherent)
LFM-A13
  AUC: 0.99
  pIC50: < 4.80
TW-37
  AUC: 0.508
  pIC50: 6.48
Bicalutamide; [1]
  AUC: 0.991
  pIC50: < 5.99
Bicalutamide; [2]
  AUC: 0.991
  pIC50: < 5.00
AUY922
  AUC: 0.818
  pIC50: 6.92
KIN001-270
  AUC: 0.954
  pIC50: < 4.70
Nilotinib
  AUC: 0.991
  pIC50: < 5.70
GNF-2
  AUC: 0.991
  pIC50: < 5.89
Gemcitabine
  AUC: 0.961
  pIC50: < 5.99
T0901317
  AUC: 0.973
  pIC50: < 4.99
MP470
  AUC: 0.929
  pIC50: < 4.70

## EW-1 (Ewing sarcoma, semi-adherent)
LFM-A13
  AUC: 0.947
  pIC50: < 4.80
TW-37
  AUC: 0.467
  pIC50: 6.59
Bicalutamide; [1]
  AUC: 0.985
  pIC50: < 5.99
Bicalutamide; [2]
  AUC: 0.987
  pIC50: < 5.00
AUY922
  AUC: 0.476
  pIC50: 7.86
KIN001-270
  AUC: 0.952
  pIC50: < 4.70
Nilotinib
  AUC: 0.989
  pIC50: < 5.70
GNF-2
  AUC: 0.985
  pIC50: < 5.89
Gemcitabine
  AUC: 0.099
  pIC50: > 8.40
T0901317
  AUC: 0.976
  pIC50: < 4.99
MP470
  AUC: 0.875
  pIC50: 4.77

## EW-3 (Ewing sarcoma, adherent)
LFM-A13
  AUC: 0.973
  pIC50: < 4.80
TW-37
  AUC: 0.692
  pIC50: 5.93
Bicalutamide; [1]
  AUC: 0.983
  pIC50: < 5.99
Bicalutamide; [2]
  AUC: 0.965
  pIC50: < 5.00
AUY922
  AUC: 0.821
  pIC50: 6.75
KIN001-270
  AUC: 0.971
  pIC50: < 4.70
Nilotinib
  AUC: 0.98
  pIC50: < 5.70
GNF-2
  AUC: 0.984
  pIC50: < 5.89
Gemcitabine
  AUC: 0.693
  pIC50: 6.61
T0901317
  AUC: 0.984
  pIC50: < 4.99
MP470
  AUC: 0.894
  pIC50: < 4.70

## EW-11 (Ewing sarcoma, adherent)
LFM-A13
  AUC: 0.902
  pIC50: < 4.80
TW-37
  AUC: 0.587
  pIC50: 6.24
Bicalutamide; [1]
  AUC: 0.974
  pIC50: < 5.99
Bicalutamide; [2]
  AUC: 0.909
  pIC50: < 5.00
AUY922
  AUC: 0.681
  pIC50: 7.22
KIN001-270
  AUC: 0.959
  pIC50: < 4.70
Nilotinib
  AUC: 0.961
  pIC50: < 5.70
GNF-2
  AUC: 0.98
  pIC50: < 5.89
Gemcitabine
  AUC: 0.68
  pIC50: 6.63
T0901317
  AUC: 0.981
  pIC50: < 4.99
MP470
  AUC: 0.964
  pIC50: < 4.70

## EW-13 (Ewing sarcoma, suspension)
LFM-A13
  AUC: 0.886
  pIC50: < 4.80
TW-37
  AUC: 0.864
  pIC50: < 5.30
Bicalutamide; [1]
  AUC: 0.984
  pIC50: < 5.99
Bicalutamide; [2]
  AUC: 0.984
  pIC50: < 5.00
AUY922
  AUC: 0.513
  pIC50: 7.76
KIN001-270
  AUC: 0.909
  pIC50: < 4.70
Nilotinib
  AUC: 0.909
  pIC50: < 5.70
GNF-2
  AUC: 0.981
  pIC50: < 5.89
Gemcitabine
  AUC: 0.046
  pIC50: > 8.40
T0901317
  AUC: 0.945
  pIC50: < 4.99
MP470
  AUC: 0.895
  pIC50: < 4.70

## EW-16 (Ewing sarcoma, adherent)
LFM-A13
  AUC: 0.905
  pIC50: < 4.80
TW-37
  AUC: 0.442
  pIC50: 6.67
Bicalutamide; [1]
  AUC: 0.984
  pIC50: < 5.99
Bicalutamide; [2]
  AUC: 0.982
  pIC50: < 5.00
AUY922
  AUC: 0.367
  pIC50: 8.17
KIN001-270
  AUC: 0.982
  pIC50: < 4.70
Nilotinib
  AUC: 0.981
  pIC50: < 5.70
GNF-2
  AUC: 0.978
  pIC50: < 5.89
Gemcitabine
  AUC: 0.052
  pIC50: > 8.40
T0901317
  AUC: 0.972
  pIC50: < 4.99
MP470
  AUC: 0.964
  pIC50: < 4.70
